# Screen size: about 270,000 compounds; about 5,800 (2.1%) were called active. Inconclusive results, whose numbers are uncertain, are shown with a selection of clear calls. Calls follow the shape of the dose curve; as a rule, active = well fitted inhibition curve with a large enough effect; inconclusive = small, poorly fitted or top-dose-only effect; inactive = flat fitted curve, though single readings scatter. Potencies beside an inconclusive call are fits to weak or partial responses and may not hold up.
# Biological target: Microtubule-associated protein tau (Homo sapiens) (UniProt P10636)
# UniProt P10636, sequence (P10636 whole entry, looked up): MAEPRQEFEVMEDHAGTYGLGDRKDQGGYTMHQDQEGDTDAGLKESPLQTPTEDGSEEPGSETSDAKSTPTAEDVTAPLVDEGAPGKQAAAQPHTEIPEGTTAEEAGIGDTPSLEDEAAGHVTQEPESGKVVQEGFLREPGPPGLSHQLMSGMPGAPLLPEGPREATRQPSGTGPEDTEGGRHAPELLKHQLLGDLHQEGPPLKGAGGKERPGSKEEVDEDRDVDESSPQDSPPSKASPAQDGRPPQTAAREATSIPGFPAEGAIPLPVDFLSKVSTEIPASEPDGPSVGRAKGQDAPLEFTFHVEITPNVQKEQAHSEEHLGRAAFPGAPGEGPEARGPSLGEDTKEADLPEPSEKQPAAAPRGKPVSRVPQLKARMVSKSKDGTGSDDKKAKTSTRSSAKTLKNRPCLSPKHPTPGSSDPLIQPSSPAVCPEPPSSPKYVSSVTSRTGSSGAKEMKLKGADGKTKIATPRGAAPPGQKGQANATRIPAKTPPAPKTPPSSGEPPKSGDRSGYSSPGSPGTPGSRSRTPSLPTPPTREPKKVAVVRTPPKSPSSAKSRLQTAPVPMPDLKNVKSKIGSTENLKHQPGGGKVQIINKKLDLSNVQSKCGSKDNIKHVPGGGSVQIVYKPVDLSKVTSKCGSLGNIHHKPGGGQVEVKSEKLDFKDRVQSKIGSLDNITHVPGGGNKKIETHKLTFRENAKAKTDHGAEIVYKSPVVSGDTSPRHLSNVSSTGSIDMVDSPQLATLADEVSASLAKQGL
# Test: qHTS for Inhibitors of Tau Fibril Formation, Thioflavin T Binding; also: nearly all actives have a fitted effect of over 55% in size
# Details: recombinant tau K18 P301L (four-repeat tau fragment), heparin-induced fibrillization, ThT fluorescence; series mostly up to 57.4 µM; activity, negative = inhibition: at the top concentration
# Method in brief: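 K18 P301L tau (15 uM + 0.24 uM Alexa 594-tagged), heparin 20 uM, NaOAc pH 7, 6 h 37 C; ThT 30 uM, 1 h RT, ex 450/em 510 nm.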
# % is scaled to controls: 0 for no effect and ±100 for the full control effect; potency is read from the fitted curve at half-maximal effect; tags tell the direction and shape of the fitted curve.
Compound,Potency,"activity, negative = inhibition"
CC(=O)Oc1c(Sc2ccccc2[N+](=O)[O-])c(C)nn1C(C)(C)C,"inconclusive: 20 µM [inhibitor, partial curve]",–
CCOC(=O)CCC(=O)NCc1ccc2c(c1)cc(C)n2C,–,inactive: -2.81%
Cc1sc(Cc2nc(O)cs2)nc1-c1ccccc1,"inconclusive: 5.62 µM [inhibitor, partial curve]",–
COCCn1c(C)cc(O)c(C(c2ccccc2)N2CCN(c3ccccc3)CC2)c1=O (configuration not stated),"inconclusive: 11.2 µM [inhibitor, partial curve]",–
CCOc1ccc(Nc2nnc(-n3nc(C)cc3C)c3ccccc23)cc1,"inconclusive: 0.355 µM [inhibitor, full curve, poor fit]",–
O=c1[nH]c(Cc2ccccc2)nc2scc(-c3ccccc3)c12,–,inactive: -6.89%
COc1ccc(-c2csc(/C(C#N)=C\c3ccc(O)c([N+](=O)[O-])c3)n2)cc1OC,active: 1.26 µM,–
COc1cc(OC)c(NC(=O)N2CCCn3nc(C)cc32)cc1Cl,–,inactive: 0.114%
COc1ccc(C(=O)Nc2ccc3c(c2)CCCN3C(=O)c2cccs2)c(OC)c1,"inconclusive: 0.224 µM [inhibitor, full curve, poor fit]",–
Cc1cc(C)c2nc(NC(=O)c3ccc(S(=O)(=O)N4CCc5ccccc54)cc3)sc2c1,"inconclusive: 44.7 µM [activator, single point]",–
Cc1oc2ncn(CC(C)C)c(=O)c2c1C(=O)NC(C)c1ccccc1 (configuration not stated),–,inactive: -14.6%
Cc1ccccc1OCCn1cnc2cc([N+](=O)[O-])ccc2c1=O,"inconclusive: 8.91 µM [inhibitor, partial curve]",–
COC(=O)Cc1c(C)c2ccc(OC(=O)c3ccco3)cc2oc1=O,"inconclusive: 3.55 µM [inhibitor, partial curve]",–
CCOc1ccc(NC(=O)Cn2c(=O)c(CNc3ccc(CC)cc3)cc3cc4c(cc32)OCO4)cc1,–,inactive: 10.3%
O=C(NCCO)c1ccc2c(c1)S(=O)(=O)c1ccccc1C2=O,–,inactive: -8.53%
O=[N+]([O-])c1ccc(-c2cc(-c3ccc(Cl)cc3)n[nH]2)cc1,active: 1.12 µM,–
COC(CNC(=O)c1coc2nc3ccccc3nc12)OC,"inconclusive: 28.2 µM [inhibitor, single point]",–
COc1ccc(C(=O)CSc2nnc(-c3ccc(C)cc3)o2)cc1,"inconclusive: 2.82 µM [inhibitor, full curve]",–
O=C(CCSc1ccc(Cl)cc1)c1cccs1,"inconclusive: 11.2 µM [inhibitor, partial curve]",–
CCOC(=O)CSc1nnc(NCC(=O)OC)c(=O)[nH]1,"inconclusive: 11.2 µM [inhibitor, partial curve]",–
O=C(Nc1ccccc1Br)c1ccc(OC(=S)N2CCOCC2)cc1,–,inactive: -8.26%
Cc1cccc(-n2cnc(C(=O)N/N=C\c3ccc(Br)cc3)c2)n1,"inconclusive: 1.78 µM [inhibitor, full curve]",–
Cc1cc(C)c2nc(NC(=O)c3cc(C)on3)sc2c1,"inconclusive: 3.16 µM [inhibitor, full curve]",–
O=C(Nc1cc(C(F)(F)F)ccc1Cl)c1cnn(-c2ccccc2)c1-n1cccc1,–,inactive: -7.42%

Compound,Potency,"activity, negative = inhibition"
CCCCOc1ccc(NC(=O)c2cnc(C)cn2)cc1,"inconclusive: 8.91 µM [inhibitor, partial curve]",–
COC(=O)CSc1ccc2c(N)c(C(=O)OC)sc2c1,"inconclusive: 14.1 µM [inhibitor, partial curve]",–
COc1ccc(C2=NOC(COc3ccc4c(C)cc(=O)oc4c3)C2)c(OC)c1 (configuration not stated),"inconclusive: 3.55 µM [inhibitor, partial curve]",–
O=C(CN1CCN(Cc2ccccc2)CC1)c1c[nH]c2ccccc12,"inconclusive: 22.4 µM [inhibitor, single point]",–
CCCN(CC1CC1)C(=O)COC(=O)c1ccc2c(c1)C(=O)N(c1ccc(OCC)cc1)C2=O,"inconclusive: 17.8 µM [inhibitor, partial curve]",–
S=C(NCCC1=CCCCC1)Nc1ccccc1,"inconclusive: 5.01 µM [inhibitor, partial curve]",–
Cc1ccc(/C=C/C(=O)Nc2ncc(C)s2)o1,"inconclusive: 25.1 µM [inhibitor, partial curve]",–
Cc1cc(C)c(NC(=O)c2ccc[n+](Cc3ccc([N+](=O)[O-])cc3)c2)c(C)c1,–,inactive: -1.22%
COc1ccc(N2C(=O)CSC23C(=O)N(CC(N)=O)c2ccccc23)cc1 (configuration not stated),–,inactive: 1.45%
CC(C)[C@H](CO)Nc1nc(NCc2ccc(S(N)(=O)=O)cc2)c2ncn(C(C)C)c2n1,"inconclusive: 25.1 µM [inhibitor, partial curve]",–
O=C(O)CSC1CC(=O)N(c2cccc(Cl)c2)C1=O (configuration not stated),–,inactive: 3.41%
CCOc1ccc(CCNC(=O)c2cnc3sc(N4CCCCC4)nn3c2=O)cc1,–,inactive: -11.7%
Clc1ccc(-c2nc3cnccn3c2NC2CCCC2)cc1,"inconclusive: 10 µM [inhibitor, partial curve]",–
CCOC(=O)c1c(NC(=O)CSc2nncn2C)sc(C)c1C,–,inactive: -14.8%
CN1CCN(C2=C(Cl)C(=O)N(c3ccc(Cl)c(Cl)c3)C2=O)CC1,active: 14.1 µM,–
CCCCC1=CC2=CC(=O)C(C)(OC(=O)c3ccco3)C(=O)C2=CO1 (configuration not stated),–,inactive: -8.35%
Cc1cc(C(=O)NC(C)CCC(C)C)c2ccccc2n1 (configuration not stated),–,inactive: 9.09%
C/C(CCN1CCCCc2nc(C)c(C)cc21)=N\O[C@H](C)c1cn([C@H](CO)Cc2ccccc2)nn1,–,inactive: -17.1%
CCOC(=O)Cc1c(C)nc2c(-c3cccc(Br)c3)c[nH]n2c1=O,"inconclusive: 10 µM [inhibitor, partial curve]",–
O=C1OCCN1CCNCc1cn(-c2ccc(F)cc2)nc1-c1ccccc1Cl,–,inactive: -3.18%
O=C(Cc1ccc(F)cc1)N1CCN=C1SCc1cccc([N+](=O)[O-])c1,"inconclusive: 31.6 µM [inhibitor, single point]",–
CC1CC(C)CN(C(=O)c2cc(-c3ccccn3)nc3ccccc23)C1 (configuration not stated),"inconclusive: 28.2 µM [inhibitor, single point]",–
CCOC(=O)c1cc2c(ccn2C)n1Cc1ccc(C#N)cc1,"inconclusive: 31.6 µM [inhibitor, partial curve]",–

# Reference: PubChem BioAssay AID1460 (National Center for Advancing Translational Sciences (NCATS), 2008)
